Out of some 310,000 compounds screened, about 2,200 (0.71%) showed an effect of 50% or more. Effects have a minus sign here. The list shows a part of the results.
target: human ether-à-go-go-related gene (hERG) potassium channel (human, UniProt Q12809); experiment: primary screen, population patch clamp on CHO cells stably expressing hERG
Sequence (Q12809 whole entry, looked up): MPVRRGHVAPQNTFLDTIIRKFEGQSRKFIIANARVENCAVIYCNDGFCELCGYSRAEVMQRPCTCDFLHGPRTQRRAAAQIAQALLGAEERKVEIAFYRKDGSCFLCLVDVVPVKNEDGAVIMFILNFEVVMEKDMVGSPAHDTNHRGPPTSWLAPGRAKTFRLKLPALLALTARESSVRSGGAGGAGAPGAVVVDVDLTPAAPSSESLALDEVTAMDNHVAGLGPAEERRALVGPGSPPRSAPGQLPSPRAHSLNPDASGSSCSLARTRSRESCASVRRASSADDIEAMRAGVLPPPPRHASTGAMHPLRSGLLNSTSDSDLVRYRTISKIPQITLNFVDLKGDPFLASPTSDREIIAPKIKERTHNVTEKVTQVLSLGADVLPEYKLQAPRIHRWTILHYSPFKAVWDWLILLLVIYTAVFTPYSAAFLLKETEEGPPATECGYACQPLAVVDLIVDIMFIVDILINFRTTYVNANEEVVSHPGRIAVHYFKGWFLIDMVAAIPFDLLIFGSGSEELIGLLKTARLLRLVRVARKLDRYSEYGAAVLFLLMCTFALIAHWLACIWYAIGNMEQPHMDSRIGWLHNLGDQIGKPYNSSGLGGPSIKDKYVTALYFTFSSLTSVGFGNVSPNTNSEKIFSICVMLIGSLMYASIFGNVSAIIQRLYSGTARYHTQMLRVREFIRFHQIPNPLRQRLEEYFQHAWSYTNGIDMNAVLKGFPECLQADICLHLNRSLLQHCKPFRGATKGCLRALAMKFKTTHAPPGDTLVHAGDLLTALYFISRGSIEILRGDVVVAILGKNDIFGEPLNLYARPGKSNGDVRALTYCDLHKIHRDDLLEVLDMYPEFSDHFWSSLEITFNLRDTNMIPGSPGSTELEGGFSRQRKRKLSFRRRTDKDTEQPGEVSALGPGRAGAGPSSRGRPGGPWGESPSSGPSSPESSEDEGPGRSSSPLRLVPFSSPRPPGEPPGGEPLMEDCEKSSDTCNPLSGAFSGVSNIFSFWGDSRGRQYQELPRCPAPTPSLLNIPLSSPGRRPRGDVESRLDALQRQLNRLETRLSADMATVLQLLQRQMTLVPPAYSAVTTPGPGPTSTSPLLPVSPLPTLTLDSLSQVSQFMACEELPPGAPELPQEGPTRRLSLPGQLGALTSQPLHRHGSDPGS

First: Cc1ccccc1NC(=O)c1cn(-c2ccccc2)nc1-c1ccccc1
Second: c1ccc(-c2nnc(-c3c[nH]c4ccccc34)nc2-c2ccccc2)cc1
The “hERG current change (%, negative = inhibition) at 1uM” value of the first is lower: 0.301% for the first, 7.1% for the second.

Compared with `O=C1C2CC=CCC2C(=O)N1c1cccc(OS(=O)(=O)c2ccc3ccccc3c2)c1` (centres unmarked), `Cc1ccc(S(=O)(=O)N2CCC(=O)N(C(COCc3cccc(Cl)c3)Cc3ccccc3)CC2)cc1` (centres unmarked) is higher in “hERG current change (%, negative = inhibition) at 1uM” value: -0.809% for the first, 6.04% for the second.

Compared with `CCOC(=O)N1CCC(N2CCCC(CO)(Cc3cccc(OC)c3)C2)CC1` (centres unmarked), `CCOC(=O)N1CCN(S(=O)(=O)CCNC(=O)c2ccc(OC)cc2)CC1` is higher in “hERG current change (%, negative = inhibition) at 1uM” value: -25.6% for the first, 1.78% for the second.

Going from `Cc1ccc(S(=O)(=O)NC2CC2)cc1[N+](=O)[O-]` to `CCOc1ccccc1NC(=O)C1CCC(=O)N1S(=O)(=O)c1ccc(C)cc1` (centres unmarked), the “hERG current change (%, negative = inhibition) at 1uM” value falls from 13.4% to 7.24%.

First: COc1cc(/C=C(/C(=O)O)c2ccc(-c3ccccc3)cc2)cc(OC)c1OC
Second: COc1cc(/C=C2/SC(=S)N(CCC(=O)Nc3ccc(C(=O)O)cc3)C2=O)cc(OC)c1OC
The “hERG current change (%, negative = inhibition) at 1uM” value of the first is higher: 15% for the first, 11% for the second.

Compared with `Cc1ccc(COC(=O)CCc2nc3ccccc3c(=O)[nH]2)cc1`, `CCCNC(=O)NNC(=O)c1cc(-c2ccc3c(c2)OCO3)nc2ccccc12` is higher in “hERG current change (%, negative = inhibition) at 1uM” value: 1.05% for the first, 6.49% for the second.

First: Cc1cccc2c(=O)c(C(=O)NCc3ccc(F)cc3)c[nH]c12
Second: CCC1(c2ccc(F)cc2)NC(=O)N(CC(=O)N2CC(=O)Nc3ccccc32)C1=O (centres unmarked)
The “hERG current change (%, negative = inhibition) at 1uM” value of the first is higher: 4.66% for the first, -14.1% for the second.

First: O=C(CN1CCN(c2nc(-c3ccc(Cl)cc3)cs2)CC1)NCc1ccco1
Second: CNC(=O)c1cnn(-c2nc(-c3ccc(OC)cc3)cs2)c1C(F)(F)F
The “hERG current change (%, negative = inhibition) at 1uM” value of the first is lower: -11.4% for the first, 13.1% for the second.

First: Oc1ccc2ccccc2c1CN1CC=C(c2ccccc2)CC1
Second: Cc1ccc2cc(NC(=O)c3ccccc3)ccc2n1
The “hERG current change (%, negative = inhibition) at 1uM” value of the first is higher: 17.5% for the first, 15.2% for the second.

Compared with `COc1ccc(/C=C(\NC(=O)c2ccco2)C(=O)NC(Cc2ccccc2)C(=O)O)cc1` (centres unmarked), `O=C(Cc1cccs1)N/N=C/c1ccc(OCc2ccccc2)cc1` is lower in “hERG current change (%, negative = inhibition) at 1uM” value: 7.1% for the first, 0.531% for the second.

Going from `O=C(COC(=O)CNC(=O)c1cccc([N+](=O)[O-])c1)NCc1ccco1` to `Cc1cc(C)n(CCCNC(=O)c2ccc(S(=O)(=O)NCc3ccco3)cc2)n1`, the “hERG current change (%, negative = inhibition) at 1uM” value falls from 4.92% to 3.77%.

Going from `CN(CC(=O)Nc1cccnc1)S(=O)(=O)c1ccccc1` to `N#Cc1cccc(NC(=O)Cc2ccccc2)c1`, the “hERG current change (%, negative = inhibition) at 1uM” value rises from 10.2% to 17.6%.

First: CCc1c(C)nc(N)c(C#N)c1-c1ccccc1
Second: CCc1nnc(NC(=O)c2cc(-c3cccnc3)nc3ccccc23)s1
The “hERG current change (%, negative = inhibition) at 1uM” value of the first is lower: 10.2% for the first, 13.3% for the second.

Compared with `O=C(O)C1CC=CCC1C(=O)N1CCc2ccccc21` (centres unmarked), `O=C(CO/N=C/c1ccccc1Cl)N1CCCc2ccccc21` is lower in “hERG current change (%, negative = inhibition) at 1uM” value: 15.7% for the first, 7.11% for the second.

Going from `Cc1cc[n+](-c2nc3ccccc3nc2[N-]S(=O)(=O)c2cccs2)cc1C` to `O=C(N/N=C/c1ccc2ncccc2c1)c1cc(-c2cccs2)nc2ccccc12`, the “hERG current change (%, negative = inhibition) at 1uM” value rises from 1.23% to 13.7%.

Going from `COc1ccc(-n2c(C)cc(/C=C3\SC(=S)NC3=O)c2C)cc1` to `CCn1c(SCC(=O)Nc2ccc(OC)cc2)nc2c(c1=O)SCC2`, the “hERG current change (%, negative = inhibition) at 1uM” value falls from 15% to 7.76%.

Compared with `Cc1ccc(C(=O)N/C(=C\c2cccs2)C(=O)NCc2ccncc2)cc1`, `COc1ccc(NC(=O)c2ccc(NC3=NC4CS(=O)(=O)CC4S3)cc2)cc1` (centres unmarked) is higher in “hERG current change (%, negative = inhibition) at 1uM” value: -38.5% for the first, 8.84% for the second.

Compared with `CC(=O)Nc1ccc(N(CC(=O)NC2CCCC2)C(=O)CCC(=O)Nc2cc(C)on2)cc1`, `CCC1CCCCN1S(=O)(=O)c1ccc(NC(=O)c2nc(S(C)(=O)=O)ncc2Cl)cc1` (centres unmarked) is higher in “hERG current change (%, negative = inhibition) at 1uM” value: 19.8% for the first, 20.9% for the second.

Going from `O=C(c1cccc2c1-c1ccccc1/C2=N/O)N1CCCCC1` to `COc1ccccc1N1CCN(C(=O)c2ccc(N3CCCCS3(=O)=O)cc2)CC1`, the “hERG current change (%, negative = inhibition) at 1uM” value rises from -2% to 11.4%.

Going from `CC1CCCN(C(=O)c2ccc3c(=O)n(Cc4ccc5c(c4)OCO5)c(=S)[nH]c3c2)C1` (centres unmarked) to `Cc1cc(S(=O)(=O)NC(C)C)ccc1OCC(=O)N1CCN(Cc2ccc3c(c2)OCO3)CC1`, the “hERG current change (%, negative = inhibition) at 1uM” value falls from 4.88% to -2.02%.

Compared with `CC1CC(NC(=O)c2cc3c(=O)n4ccccc4nc3n2C)CC(C)(C)C1` (centres unmarked), `CCc1nc(SCC(=O)N2CCC(C)CC2)c2c(=O)n(C)c(=O)n(C)c2n1` is lower in “hERG current change (%, negative = inhibition) at 1uM” value: 12% for the first, 2.17% for the second.

Compared with `O=C(CN(Cc1ccc(F)cc1)C(=O)CNS(=O)(=O)c1ccccc1)NCC1CCCO1` (centres unmarked), `CCOc1ccccc1NC(=O)C1CCCCN1S(=O)(=O)c1ccccc1` (centres unmarked) is lower in “hERG current change (%, negative = inhibition) at 1uM” value: 13.2% for the first, 5.55% for the second.

Going from `COC(=O)[C@@H]1CC(O)CN1C(=O)C12CC3CC(CC(C3)C1)C2` (some centres unmarked) to `O=C(NC1CCCCC1)c1ccccc1NC(=S)NC(=O)C1CC1`, the “hERG current change (%, negative = inhibition) at 1uM” value rises from 8.03% to 18%.

First: COc1ccc(OCC(=O)Nc2ccccc2O)cc1
Second: COc1ccc(Cn2c(-c3ccc(OC)cc3)nc3ccccc32)cc1
The “hERG current change (%, negative = inhibition) at 1uM” value of the first is lower: -9.12% for the first, -0.996% for the second.

First: CCCCN1C(=O)/C(=C/c2ccc(N3CCCCCC3)cc2)C(=O)NC1=S
Second: CS(=O)(=O)c1ccc(N2CCN(C3CC(=O)NC3=O)CC2)cc1 (centres unmarked)
The “hERG current change (%, negative = inhibition) at 1uM” value of the first is lower: -4.6% for the first, 9.3% for the second.

First: O=C1NC2(CCCCCC2)Oc2ccccc21
Second: O=C(C[C@H]1C(=O)N(C2CCCCC2)C[C@@H]1Cc1ccccc1)Nc1ccccc1
The “hERG current change (%, negative = inhibition) at 1uM” value of the first is higher: 9.01% for the first, -7.77% for the second.

First: COc1cccc(OC)c1OCCNCC1COc2ccccc2O1.Cl (centres unmarked)
Second: COc1ccccc1OCCC(=O)NNC(=O)c1ccccc1F
The “hERG current change (%, negative = inhibition) at 1uM” value of the first is lower: -5.28% for the first, 9.54% for the second.

First: C=C(C)C(=O)N1CC2(CC(c3cccc(NC(=O)CC(c4ccccc4)c4ccccc4)c3)=NO2)C[C@H]1C(N)=O (some centres unmarked)
Second: O=C(CSc1nnc(Cc2ccccc2)o1)Nc1ccccc1
The “hERG current change (%, negative = inhibition) at 1uM” value of the first is higher: 11.3% for the first, 9.62% for the second.

Compared with `O=C(Cn1nnc(-c2ccncc2)n1)Nc1ccc2c(c1)CCC2`, `CCOc1ncccc1C(=O)OCC(=O)Nc1cccc(S(=O)(=O)N2CCCCCC2)c1` is lower in “hERG current change (%, negative = inhibition) at 1uM” value: 9.61% for the first, -20.9% for the second.

First: Cc1ccc(C)c(S(=O)(=O)N2CCCC2CNC(=O)C(=O)NCc2ccccc2C)c1 (centres unmarked)
Second: CCC1CCCCN1CCCNC(=O)CN1C(=O)COc2ccc(S(=O)(=O)N3CCC(C)CC3)cc21 (centres unmarked)
The “hERG current change (%, negative = inhibition) at 1uM” value of the first is higher: -1.35% for the first, -13.8% for the second.

Compared with `COc1cc(/C=N/Nc2ccccn2)ccc1OCC(C)C`, `Cc1ccnc(NC(=O)Cc2ccc([N+](=O)[O-])cc2)c1` is lower in “hERG current change (%, negative = inhibition) at 1uM” value: 12.8% for the first, 4.06% for the second.

Compared with `CCOP(=O)(OCC)/C(C#N)=C/c1ccc(-c2ccc(F)cc2F)o1`, `CN(C)Cc1c(O)ccc2occ(C(=O)c3ccc(F)cc3)c12` is lower in “hERG current change (%, negative = inhibition) at 1uM” value: 12.1% for the first, -57.5% for the second.

Compared with `CC(C)NC(C(=O)Nc1cc(Cl)cc(Cl)c1)c1ccccc1` (centres unmarked), `Cc1c(Cl)cccc1NC(=S)NCC(O)c1ccccc1` (centres unmarked) is higher in “hERG current change (%, negative = inhibition) at 1uM” value: 8.81% for the first, 11.7% for the second.

First: C=CCN1C(=O)C2C(C(=O)NCc3ccccc3)C3(C)C=CC2(O3)C1C(=O)NC(C)(C)C (centres unmarked)
Second: O=C(NC(=S)Nc1ccccc1[N+](=O)[O-])c1ccccc1Cl
The “hERG current change (%, negative = inhibition) at 1uM” value of the first is higher: 19.5% for the first, 11.8% for the second.

Going from `COc1ccc(C2c3c(ccc4ccccc34)Oc3ncn4nc(Cc5ccccc5)nc4c32)cc1OC` (centres unmarked) to `O=C(CN1c2ccccc2Sc2ccccc21)N/N=C/c1ccc(Cl)cc1Cl`, the “hERG current change (%, negative = inhibition) at 1uM” value rises from -3.63% to 12.9%.

First: C=CCNCC(=O)Nc1sc2c(c1C(=O)Nc1ccc(OC)cc1OC)CCC2
Second: O=C(/C=C/c1cccs1)Nc1sc2c(c1C(=O)O)CCCC2
The “hERG current change (%, negative = inhibition) at 1uM” value of the first is lower: 9.66% for the first, 16.9% for the second.

Going from `CC1=CC(=O)c2c(O)ccc(O)c2C1=O` to `COC(=O)c1sc(C(C)(C)C)cc1CS(=O)(=O)c1ccc(Cl)cc1`, the “hERG current change (%, negative = inhibition) at 1uM” value rises from -20.8% to 23.7%.

Compared with `O=C(COC(=O)c1cc(=O)[nH]c2ccccc12)Nc1nc(-c2cccc(Br)c2)cs1`, `CC(Cn1cncn1)NC(=O)c1cc(COc2cccc(C(F)(F)F)c2)on1` (centres unmarked) is higher in “hERG current change (%, negative = inhibition) at 1uM” value: 4.44% for the first, 14.3% for the second.

Compared with `COc1cc(OC)cc(C(=O)Nc2ncn[nH]2)c1`, `COc1cc(C2=NOC(C(=O)N3CCN(c4ccc(F)cc4)CC3)C2)cc(OC)c1OC` (centres unmarked) is lower in “hERG current change (%, negative = inhibition) at 1uM” value: 14% for the first, -7.57% for the second.

Compared with `Cn1ccnc1C(=O)Cc1ccc([N+](=O)[O-])cc1`, `Cn1c(SCc2ccccc2F)nnc1-c1ccccn1` is higher in “hERG current change (%, negative = inhibition) at 1uM” value: 6.73% for the first, 11.3% for the second.

Compared with `Cc1ccc(C#N)c(SCCN2CCCCC2)n1`, `Cc1cc2nc(C3CCN(C(=S)NCCCOC(C)C)CC3)[nH]c2cc1C` is higher in “hERG current change (%, negative = inhibition) at 1uM” value: -1.99% for the first, 9.1% for the second.

Going from `Cc1c(/N=C(\[O-])Nc2ccc(Br)cc2)sn[n+]1C` to `COC(=O)c1nnn(-c2nonc2N)c1-c1cccs1`, the “hERG current change (%, negative = inhibition) at 1uM” value falls from 1.76% to -5.51%.

Going from `Cc1cc(C)c(OCC(=O)OC(C)C(=O)NC2CC2)c(C)c1` (centres unmarked) to `CCCCc1cn([C@@H](CCCCN)C(=O)N2CCNCC2)nn1.Cl`, the “hERG current change (%, negative = inhibition) at 1uM” value falls from 15.9% to 11%.
